# Measured values: PubChem BioAssay AID463173 (ICCB-Longwood Screening Facility, Harvard Medical School, 2010)
# The campaign covered roughly 52,000 compounds. About 1,700 (3.3%) were called active. Cut-off read from the data, not from the text of the source: active = survival mostly below about 52% (no sharp cut-off); inactive = mostly above about 56%. This is one part of the list.
# System: Wild type
# Experiment: growth inhibition of S. aureus wild type versus tarO mutant, primary screen, teichoic acid synthesis inhibitors, RN4220, OD600 (AID 463173)
# Conditions: S. aureus RN4220 wild type/DeltatarO growth, OD600, 18 h, stronger effect = lower value, screened at 18.75 µg/mL (by protocol)
row,SMILES,survival
1,CCOC(=O)c1c(C)oc2nc(C)nc(NCCCN3CCN(c4cc(C)ccc4C)CC3)c12,inactive: 105%
2,COc1ccc(-c2nc(CSCC(=O)NCc3ccccc3Cl)c(C)o2)cc1OC,inactive: 70%
3,C=CCNC(=O)C(C)N1CCN(C)CC1 (stereo not drawn),inactive: 95%
4,COc1cc(NC(=O)C2CCN(S(=O)(=O)c3c(C)noc3/C=C/c3ccccc3F)CC2)cc(OC)c1OC,inactive: 64%
5,COc1cccc(/C=C/c2nc(C#N)c(N3CCN(C)CC3)o2)c1,inactive: 83%
6,CC(NC(=O)c1ccc2c(c1)sc1nc(-c3ccc(F)cc3)cn12)C12CC3CC(CC(C3)C1)C2 (stereo not drawn),inactive: 101%
7,FC(F)(F)c1cccc(Nc2c3c(nc4ccc(Cl)cc24)CCC3)c1,active: 5%
8,CCCCCN1C(C(=O)c2ccccc2)=C(OC(=O)CC)c2ccccc2S1(=O)=O,active: -4%
9,COc1cc(OC)c(NC(=O)CCc2c(C)nc3c4c(C)cc(C)nc4nn3c2C)cc1Cl,inactive: 78%
10,Cc1ccc(CCNC(=O)c2ccc(Nc3nc4ccccc4n4nnnc34)cc2)cc1,inactive: 74%
11,N#Cc1cc2c(=O)n3ccccc3nc2n(-c2nnc(SCc3ccccc3Cl)s2)c1=O,inactive: 99%
12,CCN(CCCNC(=O)Cn1ncc2c([nH]c3ccc(C)cc32)c1=O)c1ccccc1,inactive: 111%
13,CCC(Sc1nc2n[nH]c(C)c2c(=N)n1-c1ccccc1Cl)C(=O)N(CC)CC (stereo not drawn),inactive: 131%
14,Cc1cccc(NC(=O)c2cc3c(=O)n(Cc4cccnc4)ccc3nc2C)c1,active: -3%
15,COc1ccc(NC(=O)CCn2cnc3onc(-c4ccc(F)cc4)c3c2=O)cc1OC,inactive: 123%
16,CC1Cn2c(C(=O)NCc3ccccc3Cl)cc3cccc(c32)S1 (stereo not drawn),inactive: 72%
17,O=C(NCCO)c1ccc2nc(-c3ccco3)c(-c3ccco3)nc2c1,inactive: 111%
18,CCCOc1ccc(C(=O)N(Cc2ccco2)Cc2ccco2)cc1,inactive: 92%
19,O=C(NCC(c1cccs1)S(=O)(=O)c1cccs1)c1c(F)cccc1F (stereo not drawn),inactive: 71%
20,CC(C)c1nn2c(=O)cc(COC(=O)c3ccc(NC(=O)c4cccs4)cc3)nc2s1,inactive: 73%
21,Cc1ccc(S(=O)(=O)NCCc2nnc3ccc(SCC(=O)Nc4ccc(F)cc4F)nn23)cc1,inactive: 89%
22,COc1ccc(CCNC(=O)CCc2c(C)nc3cc(-c4cccc(F)c4)nn3c2C)cc1OC,inactive: 138%

row,SMILES,survival
1,CCOC(=O)Cn1c(=O)n(CC2CCCO2)c2nc(-c3cc(OC)ccc3OC)nc(C(N)=O)c21 (stereo not drawn),inactive: 129%
2,Cc1ccccc1OCC(=O)Nc1ccccc1OCc1cc(=O)n2ccccc2n1,inactive: 87%
3,COc1ccc(OC(=O)c2nc(SCc3ccccc3C)ncc2Cl)cc1,inactive: 96%
4,Cc1cc(C)c2c(CC(=O)Nc3cc(C(F)(F)F)ccc3Cl)coc2c1,inactive: 95%
5,COc1cccc(CSc2nc3n(n2)C(CC(C)C)C(C(=O)Nc2ccccc2C)=C(C)N3)c1 (stereo not drawn),inactive: 85%
6,COc1ccc(C(=O)Nc2cccc(C(=O)OCc3cc(=O)n4c5c(sc4n3)CCCC5)c2)cc1,inactive: 75%
7,Cc1ccc(CCNC(=O)CCCc2nnc3n(C)c(=O)c4sccc4n23)cc1,inactive: 83%
8,COc1ccccc1-n1c(=O)n(C)c2c(C(N)=O)nc(-c3cccc(OC)c3OC)nc21,inactive: 84%
9,O=C(C1CCCN(S(=O)(=O)c2cccc3nsnc23)C1)N1CCN(c2cccc(Cl)c2)CC1 (stereo not drawn),inactive: 63%
10,CCN(CC)c1nn2c(=O)c(C(=O)NCCc3cccc(C)c3)cnc2s1,inactive: 73%
11,Cc1ccc2nc(-c3ccccn3)c(Nc3ccccc3C)n2c1,active: 18%
12,CCCN1CCc2nc(N3CCN(C)CC3)ncc2C1,inactive: 119%
13,COc1ccc(-c2noc(CSc3nc4ccccc4[nH]3)n2)cc1OC,inactive: 72%
14,CCc1cccc(C)c1NS(=O)(=O)c1ccc2c(c1)CC(C)N2C(=O)C1CC1 (stereo not drawn),inactive: 80%
15,Cc1cccc(Cn2c(=O)n(-c3ccccc3C)c(=O)c3c2c2cc(C)ccc2n3C)c1,inactive: 74%
16,Fc1cccc(CSc2ccc(-c3cccs3)nn2)c1,inactive: 86%
17,COc1ccc(S(=O)(=O)NCCc2csc3nc(-c4ccccc4)nn23)cc1OC,inactive: 71%
18,CCN1C(=O)C(O)(c2c[nH]c3ccccc23)c2cc(Br)ccc21 (stereo not drawn),inactive: 72%
19,Cc1ccc2oc3c(c(=O)c2c1)C(c1ccc(O)cc1)N(c1nc(C)c(C)s1)C3=O (stereo not drawn),inactive: 135%
20,CCC(=O)N1c2ccccc2CC1C(=O)NCc1cc(Br)ccc1OC (stereo not drawn),inactive: 127%
21,COc1ccccc1C(=O)N(c1ccc(C)cc1)S(=O)(=O)c1ccc(Cl)cc1,inactive: 71%
22,Cc1ccc(CNc2nc3ccccc3n3cnnc23)cc1,inactive: 88%

row,SMILES,survival
1,Cc1csc2nc(COC(=O)c3ccc(NC(=O)C(C)Oc4ccccc4)cc3)cc(=O)n12 (stereo not drawn),inactive: 159%
2,CCC(=O)Nc1nnc(S(=O)(=O)N2c3ccccc3CC2C)s1 (stereo not drawn),inactive: 84%
3,CCCC1=Nc2cc(C(=O)N3CCC(C(=O)OCC)CC3)ccc2Sc2ccccc21,inactive: 75%
4,O=C(OC(C(=O)NC1CCCC1)c1ccccn1)c1cccs1 (stereo not drawn),inactive: 109%
5,COc1ccc(NC(=O)c2cnc(N3CCCC3)nc2)cc1OC,inactive: 66%
6,Cc1cccc(NC(=O)C2CCCN2S(=O)(=O)c2ccc3c(c2)n(C)c(=O)c(=O)n3C)c1 (stereo not drawn),inactive: 81%
7,Cc1cc(C)c2oc(-c3cccc(NC(=O)c4ccc(-c5cccc([N+](=O)[O-])c5)o4)c3)nc2c1,inactive: 66%
8,O=C(NCc1cccc(F)c1)c1ccccc1NC(=O)c1nsc2ccccc12,inactive: 120%
9,O=C(c1ccccc1)N1CCc2cc(CNS(=O)(=O)c3ccc(Cl)s3)ccc21,inactive: 66%
10,CCNC(=O)c1ccc(C2SCC(=O)N2Cc2ccco2)cc1 (stereo not drawn),inactive: 110%
11,O=C(CCSCc1cccc(Cl)c1)NCCc1ccc(Cl)cc1,inactive: 67%
12,COc1ccc(-n2c(SCC(=O)NCc3ccc(F)cc3)nc3c([nH]c4ccccc43)c2=O)cc1,inactive: 79%
13,Cc1oc(-c2ccc(Cl)cc2)nc1Cn1c(=O)cc(C)c2c(C)nn(-c3ccccc3)c21,inactive: 83%
14,Cc1nn2cc(-c3ccc(OC(C)C)cc3)nc2s1,inactive: 85%
15,Cn1c(=O)n(C)c2cc(N3CCOCC3)c(NS(=O)(=O)c3cccc(C#N)c3)cc21,inactive: 76%
16,COc1ccccc1CNC(=O)CCCCn1c(=O)c2ccccc2n(Cc2ccccc2F)c1=O,inactive: 116%
17,CC(=O)Nc1cccc(NC(=O)Cn2cnc3c(oc4ccccc43)c2=O)c1,inactive: 97%
18,Cc1ccc(CNC(=O)CSc2nc3ccccc3nc2Cc2ccc(C)cc2)cc1,inactive: 78%
19,CCOc1ccc(NC(=O)c2c(C)oc3nc(C)nc(N4CCOCC4)c23)cc1,inactive: 74%
20,Cc1ccc(CCNC(=O)C2CCN(S(=O)(=O)c3ccc4c(ccn4C)c3)CC2)cc1,inactive: 83%
21,Cc1ccc(-c2nc3c4c(-c5ccccc5)c(-c5ccccc5)oc4ncn3n2)cc1,inactive: 72%
22,Cc1cccc(-c2nc3c(cnn3-c3ccccc3)c(=O)n2-c2ccc(Cl)cc2)c1,inactive: 82%

row,SMILES,survival
1,COc1ccc(S(=O)(=O)NCC(c2ccco2)S(=O)(=O)c2cccs2)cc1F (stereo not drawn),inactive: 75%
2,COc1ccc(NC(=O)CSc2nc(C)cc(C)c2C(=O)Nc2ccccc2OC)cc1,inactive: 81%
3,CCCn1c(=N)c(C(=O)NCC2CCCO2)cc2c(=O)n3cc(C)ccc3nc21 (stereo not drawn),inactive: 126%
4,Cc1cccc(-c2nc(SCc3cc(=O)c4c(C)cc(C)cc4[nH]3)n[nH]2)c1,inactive: 85%
5,COCCN(CCOC)S(=O)(=O)c1ccc(C(=O)Nc2sc3c(c2C(N)=O)CCCC3)cc1,inactive: 147%
6,COc1ccc(S(=O)(=O)N2CCC(c3nc4ccccc4s3)CC2)cc1OC,inactive: 88%
7,O=C(Cn1ncc2c3ccccc3n(Cc3ccccc3)c2c1=O)NCCc1ccc(Cl)cc1,inactive: 96%
8,O=C(Cn1nc2c(cc1=O)CCCC2)NCc1ccc(Cl)cc1,inactive: 82%
9,Cc1cccc(CSc2cn(CC(=O)N3CCOCC3)c3ccccc23)c1,inactive: 86%
10,CCCNC(=O)c1ccc2c(c1)N=C(CCC)c1ccccc1S2,inactive: 80%
11,COc1cccc(NC(=O)Cn2nc(N3CCN(c4ccccc4)CC3)ccc2=O)c1,inactive: 85%
12,Cc1ccc(Cl)cc1-n1ncc2c(NCCc3ccccc3)ncnc21,inactive: 75%
13,CCN(C(=O)CN1C(=O)c2ccccc2Sc2ccc(C(=O)OC)cc21)c1cccc(C)c1,inactive: 128%
14,Cc1ccc(OCC(=O)Nc2ccc(OCc3cc(=O)n4ccsc4n3)cc2)cc1C,inactive: 132%
15,CCC(=O)N1CCc2cc(S(=O)(=O)NC(Cc3ccccc3)C(=O)NCc3ccccc3)ccc21 (stereo not drawn),inactive: 84%
16,Cc1ccc(NC(=O)Cn2c(=O)n(Cc3nc(-c4ccccc4)no3)c(=O)c3ccccc32)c(C)c1,inactive: 72%
17,CCCCNc1nc2c(S(=O)(=O)c3ccc(Br)cc3)nnn2c2ccsc12,inactive: 91%
18,Cc1ccc(Nc2c(-c3ccccn3)nc3ccc(Br)cn23)cc1,inactive: 60%
19,CCC(=O)N1CCc2cc(Br)cc(S(=O)(=O)N3CCCC(C(=O)Nc4ccc(C)c(F)c4)C3)c21 (stereo not drawn),inactive: 99%
20,Cc1ccc2ccc3cc(C(=O)N4CCN(c5ccccc5F)CC4)nc3c2[nH]1,inactive: 78%
21,CC(CCc1ccccc1)NC(=O)CSc1n[nH]c(-c2ccccc2)n1 (stereo not drawn),inactive: 71%
22,CCCCNC(=O)CCC(=O)NNc1nc2ccccc2c2nc(C)nn12,inactive: 83%
